B1: 3h56-258-IgG1* (Fc fusion)
chain: EVQLLESGGGLVQPGGSLRLSCAASGFTFRDYEMWWVRQAPGKGLERVSAINPQGTRTYYADSVKGRFTISRDNSKNTLYLQMNSLRAEDTAVYYCAKLPFYFHEWGQGTLVTVSS[human IgG1 Fc with changes not given here]
B2: 3h56-258-IgG4 (Fc fusion)
chain: EVQLLESGGGLVQPGGSLRLSCAASGFTFRDYEMWWVRQAPGKGLERVSAINPQGTRTYYADSVKGRFTISRDNSKNTLYLQMNSLRAEDTAVYYCAKLPFYFHEWGQGTLVTVSS[human IgG4 Fc with S228P (EU numbers) not given here]
B3: 3h37-202-IgG4 (Fc fusion)
chain: EVQLLESGGGLVQPGGSLRLSCAASGFTFEWYEMQWVRRAPGKGLEWVSAISGDGWRTYYADSVKGRFTISRDNSKNTLYLQMNSLRAEDTAVYYCAKELGYFDYWGRGTLVTVSS[human IgG4 Fc with S228P (EU numbers) not given here]
B4: 3h38-235-IgG4 (Fc fusion)
chain: EVQLLASGGGLVQPGGSLRLSCAASGFTFEEEEMIWVRQAPGKGLEWVSAISRNGYSTYYADSVKGRFTISRDNSKNTLYLQMNSLRAEDTAVYYCGKEPFRYDYWGQGTLVTVSS[human IgG4 Fc with S228P (EU numbers) not given here]
B5: 3h37-202-IgG1* (Fc fusion)
chain: EVQLLESGGGLVQPGGSLRLSCAASGFTFEWYEMQWVRRAPGKGLEWVSAISGDGWRTYYADSVKGRFTISRDNSKNTLYLQMNSLRAEDTAVYYCAKELGYFDYWGRGTLVTVSS[human IgG1 Fc with changes not given here]
B6: 3h38-235-IgG1* (Fc fusion)
chain: EVQLLASGGGLVQPGGSLRLSCAASGFTFEEEEMIWVRQAPGKGLEWVSAISRNGYSTYYADSVKGRFTISRDNSKNTLYLQMNSLRAEDTAVYYCGKEPFRYDYWGQGTLVTVSS[human IgG1 Fc with changes not given here]

Where “and” joins values, the source holds several entries; their conditions need not be identical. Equal entries are not always repeated.

The values below come from patent publication US20200199244A1.

The target of the assay is human CD40 (human) (UniProt P25942). Description: cell-based or functional assay.
Chain of UniProt P25942 (P25942 21-277 limits assumed): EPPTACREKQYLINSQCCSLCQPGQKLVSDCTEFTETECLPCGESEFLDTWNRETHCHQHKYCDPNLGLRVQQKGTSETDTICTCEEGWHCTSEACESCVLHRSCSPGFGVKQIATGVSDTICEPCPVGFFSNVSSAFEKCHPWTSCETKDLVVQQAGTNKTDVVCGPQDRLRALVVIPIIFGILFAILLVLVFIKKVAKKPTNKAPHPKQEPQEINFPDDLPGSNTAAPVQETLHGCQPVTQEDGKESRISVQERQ
With B1, the CHO-hCD40L-driven DC Activation IL-12 EC50 was 0.31 nM, the CHO-hCD40L-driven Human B Cell Proliferation EC50 came out at 0.6 nM, the T-B cell MLR EC50 was 2 nM and the hIZCD40L-driven Human B Cell Proliferation EC50 was 0.063 nM.
For B2, the CHO-hCD40L-driven DC Activation IL-6 EC50 was 0.11 nM, the CHO-hCD40L-driven DC Activation IL-12 EC50 was determined as 0.3 nM, the CHO-hCD40L-driven DC Activation TNF EC50 was 0.22 nM and the CHO-hCD40L-driven Human B Cell Proliferation EC50 amounted to 1 nM. For the same molecule, the T-B cell MLR EC50 is 2.4 nM and the hIZCD40L-driven Human B Cell Proliferation EC50 came out at 0.16 nM.
On to B3, for which the CHO-hCD40L-driven DC Activation IL-12 EC50 was 0.53 nM; the CHO-hCD40L-driven Human B Cell Proliferation EC50 was 5 nM and 3 nM; the T-B cell MLR EC50 is 5 nM and 6 nM; the hIZCD40L-driven Human B Cell Proliferation EC50 is 0.16 nM.
For B4, the CHO-hCD40L-driven DC Activation IL-12 EC50 is 0.67 nM; the CHO-hCD40L-driven Human B Cell Proliferation EC50 was 6 nM and 10 nM; the T-B cell MLR EC50 stood at 16.7 nM; the hIZCD40L-driven Human B Cell Proliferation EC50 was 0.2 nM and 0.15 nM.
For the molecule B5, the CHO-hCD40L-driven DC Activation IL-12 EC50 was determined as 0.74 nM; the CHO-hCD40L-driven Human B Cell Proliferation EC50 is 3 nM and 7 nM; the hIZCD40L-driven Human B Cell Proliferation EC50 is 0.27 nM and 0.22 nM.
The molecule B6 displayed a CHO-hCD40L-driven DC Activation IL-12 EC50 of 0.88 nM, a CHO-hCD40L-driven Human B Cell Proliferation EC50 of 4 nM and a hIZCD40L-driven Human B Cell Proliferation EC50 of 0.25 nM.
